Some of the results follow.
B1: PhoQ; a variant is named by its letters at X, in order, P23837 (parent)
chain: MKKLLRLFFPLSLRVRFLLATAAVVLVLSLAYGMVALIGYSVSFDKTTFRLLRGESNLFYTLAKWENNKLHVELPENIDKQSPTMTLIYDENGQLLWAQRDVPWLMKMIQPDWLKSNGFHEIEADVNDTSLLLSGDHSIQQQLQEVREDDDDAEMTHSVAVNVYPATSRMPKLTIVVVDTIPVELKSSYMVWSWFIYVLSANLLLVIPLLWVAAWWSLRPIEALAKEVRELEEHNRELLNPATTRELTSLVRNLNRLLKSERERYDKYRTTLTDLTHSLKTPLXXLQXXLRSLRSEKMSVSDAEPVMLEQISRISQQIGYYLHRASMRGGTLLSRELHPVAPLLDNLTSALNKVYQRKGVNISLDISPEISFVGEQNDFVEVMGNVLDNACKYCLEFVEISARQTDEHLYIVVEDDGPGIPLSKREVIFDRGQRVDTLRPGQGVGLAVAREITEQYEGKIVAGESMLGGARMEVIFGRQHSAPKDE

Variants of: B1
Assay: enrichment ratio after two sorts for PhoP signalling (ratio (wild type AVST 3.29)); higher = more functional
Settings: with PhoP (E. coli)

Row | Variant | enrichment ratio
1 | GMQA | ≤ 0.25
2 | SYHQ | ≤ 0.25
3 | TVCF | ≤ 0.25
4 | TKWR | ≤ 0.25
5 | VGMW | ≤ 0.25
6 | SFQH | ≤ 0.25
7 | HIMP | ≤ 0.25
8 | WDQS | ≤ 0.25
9 | NNAT | ≤ 0.25
10 | FPED | ≤ 0.25
11 | AMNK | ≤ 0.25
12 | LPFQ | ≤ 0.25
13 | VGRD | ≤ 0.25
14 | EKFA | ≤ 0.25
15 | FKME | ≤ 0.25
16 | FVVN | ≤ 0.25
17 | YCCS | ≤ 0.25
18 | MCSP | ≤ 0.25
19 | NLMI | ≤ 0.25
20 | YTHQ | ≤ 0.25
21 | LRTG | ≤ 0.25
22 | IHLI | ≤ 0.25
23 | PEWF | ≤ 0.25
24 | IQKI | ≤ 0.25
25 | GILM | 15.7
26 | FITP | ≤ 0.25

Row | Variant | enrichment ratio
27 | YGYH | ≤ 0.25
28 | VATP | ≤ 0.25
29 | AYYQ | ≤ 0.25
30 | AYKA | ≤ 0.25
31 | PRGT | ≤ 0.25
32 | VSNK | ≤ 0.25
33 | INWI | ≤ 0.25
34 | EKQD | ≤ 0.25
35 | QFNH | ≤ 0.25
36 | IMYQ | ≤ 0.25
37 | WKKN | ≤ 0.25
38 | QRLS | ≤ 0.25
39 | ECFE | ≤ 0.25
40 | DRRD | ≤ 0.25
41 | FYLR | ≤ 0.25
42 | DAQV | ≤ 0.25
43 | LITG | ≤ 0.25
44 | ATLM | 21.4
45 | VFCT | ≤ 0.25
46 | RFWR | ≤ 0.25
47 | QRYC | ≤ 0.25
48 | KKCG | ≤ 0.25
49 | YISM | 0.688
50 | RAIQ | ≤ 0.25
51 | YEIQ | ≤ 0.25
52 | AHHK | ≤ 0.25

Row | Variant | enrichment ratio
53 | RHSQ | ≤ 0.25
54 | EVLS | ≤ 0.25
55 | WAKL | ≤ 0.25
56 | QNEG | ≤ 0.25
57 | VQMH | ≤ 0.25
58 | TDFE | ≤ 0.25
59 | PKHL | ≤ 0.25
60 | IFTL | ≤ 0.25
61 | YENN | ≤ 0.25
62 | PEAI | ≤ 0.25
63 | YSWD | ≤ 0.25
64 | SWLE | ≤ 0.25
65 | SIAT | 3.56
66 | SKPP | ≤ 0.25
67 | TRKK | ≤ 0.25
68 | AYFE | ≤ 0.25
69 | ISSL | ≤ 0.25
70 | SRHK | ≤ 0.25
71 | DLSN | ≤ 0.25
72 | LTNH | ≤ 0.25
73 | MVWW | ≤ 0.25
74 | RYKW | ≤ 0.25
75 | ASWN | ≤ 0.25
76 | YEAR | ≤ 0.25
77 | EKQE | ≤ 0.25
78 | GWME | ≤ 0.25

Row | Variant | enrichment ratio
79 | YGCY | ≤ 0.25
80 | ELKC | ≤ 0.25
81 | TKQL | 23.2
82 | YLFM | ≤ 0.25
83 | VIYN | ≤ 0.25
84 | LKAT | ≤ 0.25
85 | ATPD | ≤ 0.25
86 | VSPG | ≤ 0.25
87 | MPAL | ≤ 0.25
88 | VYMH | ≤ 0.25
89 | QPFQ | ≤ 0.25
90 | AAAT | ≤ 0.25
91 | SQRR | ≤ 0.25
92 | SNKH | ≤ 0.25
93 | KKSA | ≤ 0.25
94 | YMYC | ≤ 0.25
95 | PIMR | ≤ 0.25
96 | AVWD | ≤ 0.25
97 | DIKS | ≤ 0.25
98 | WLLR | ≤ 0.25
99 | YDGT | ≤ 0.25
100 | NGTQ | ≤ 0.25
101 | FWFL | ≤ 0.25
102 | WEYP | ≤ 0.25
103 | RDNA | ≤ 0.25
104 | FYLQ | ≤ 0.25

Row | Variant | enrichment ratio
105 | NHHQ | ≤ 0.25
106 | NEAY | ≤ 0.25
107 | AGGH | 5.84
108 | PFFR | ≤ 0.25
109 | PTCN | ≤ 0.25
110 | MLLR | ≤ 0.25
111 | YGKC | ≤ 0.25
112 | TQVI | 6.26
113 | WYPY | ≤ 0.25
114 | VVHW | ≤ 0.25
115 | QKRN | ≤ 0.25
116 | TDCA | 14.6
117 | APID | ≤ 0.25
118 | ECYP | ≤ 0.25
119 | WVWV | ≤ 0.25
120 | NMVF | ≤ 0.25
121 | ESYQ | ≤ 0.25
122 | QCCR | ≤ 0.25
123 | YVGF | ≤ 0.25
124 | PMDQ | ≤ 0.25
125 | EENF | ≤ 0.25
126 | DYAL | ≤ 0.25
127 | RVTQ | ≤ 0.25
128 | TDGW | ≤ 0.25
129 | KFTT | ≤ 0.25
130 | VRYS | ≤ 0.25

Row | Variant | enrichment ratio
131 | GHCC | ≤ 0.25
132 | GCPD | ≤ 0.25
133 | TCHH | 26.2
134 | ITYN | ≤ 0.25
135 | WTLH | ≤ 0.25
136 | VEMF | ≤ 0.25
137 | RCIK | ≤ 0.25
138 | TRQR | ≤ 0.25
139 | PTLH | ≤ 0.25
140 | AYIM | ≤ 0.25
141 | FNRG | ≤ 0.25
142 | WMWF | ≤ 0.25
143 | ITAS | ≤ 0.25
144 | MNIA | ≤ 0.25
145 | YMDR | ≤ 0.25
146 | TFGY | ≤ 0.25
147 | HKPC | ≤ 0.25
148 | SSSP | ≤ 0.25
149 | KSVV | ≤ 0.25
150 | LMFD | ≤ 0.25
151 | MLWI | ≤ 0.25
152 | ASGW | ≤ 0.25
153 | NKCC | ≤ 0.25

From a collection of fitness landscapes (doi:10.1126/science.1257360)
